Columns and labels:
HA of H1N1 (NC99) = format: binding, Influenza A virus H1N1 (NC99)
HA of H3N2 = format: binding, Influenza A virus H3N2 (Aic68, Fuk85)
12 H3N2 strain viruses = format: cell-based, Influenza A virus

B1: F005-126: human IgG antibody broadly neutralizing H3N2 viruses; heavy chain SEQ ID NO: 2, light chain SEQ ID NO: 13 (antibody)
heavy: QVQLVQSGAEVKKPGASVTVSCQVSGYTLTSYGLSWVRQAPGQGLEWVGWINTYDGQTKYVKKFQGRVTMTTHTGTNTAYMEMKSLRSDDTAVYYCARVEGVRGVMGFHYYPMDVWGQGTMVTVSS[not shown - human IgG1 constant region with changes]
light: QSVLTQPPSVSGAPGQRVTISCTGSSSNIGAGYAVHWYQQLPGTAPKLLISGNSNRPSGVPDRFSGSKSGTSASLAITGLQAEDEADYYCQSYDSSLSGSVFGGGTKLTVLGQPKAAPSVTLFPPSSEELQANKATLVCLISDFYPGAVTVAWKADSSPVKAGVETTTPSKQSNNKYAASSYLSLTPEQWKSHRSYSCQVHEGSTVEKTVAPTECSARQ
binding to HA of H1N1 (NC99) artificially expressed on cells (HA of H1N1 (NC99)): bound only to the cells expressing HA of H3N2 | binding to HA and HA1 domain of H3N2 expressed on cells (HA of H3N2): bound equally to HA and HA1 | binding to HA of H3N2 (Aic68) artificially expressed on cells (HA of H3N2): bound only to the cells expressing HA of H3N2 | neutralization of H3N2 strains (in words) (12 H3N2 strain viruses): able to neutralize all 12 H3 strains
